Values marked as one replicate rest on one cluster of the flow cell; about a third of the high ones do not repeat.
These sequences were tested on ATP (assay: switch fluorescence ratio, 500 uM ATP over buffer (Cy3 cluster intensity, sum of 5 cycles each) (fold (ratio)); higher = stronger signal-on switching upon ATP binding; sequences stand for … in TCGTCGGCAGCGTCAGATGTGTATAAGAGACAGTTTTTTTTTTTTTTTTTTTTTTTTT…TC). Details: aptamer strand: ATP DNA aptamer (quencher-CACCTGGGGGAGTATTGCGGAGGAAGG + anchor), 100 nM annealed; ATP concentration: 500 uM; one replicate.
In short: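 Clusters carrying Cy3-labelled switching strands on a modified Illumina MiSeq flow-cell were annealed to 100 nM quencher-labelled ATP aptamer and imaged in selection buffer. They were imaged again after 15 min with 500 uM ATP at 22 °C, over five buffer/ATP cycles with NaOH stripping and re-annealing in between. For each cluster, the fluorescence ratio is the summed Cy3 intensity of the target cycles divided by that of the buffer cycles, averaged per switch-domain sequence. Clusters outside 100-1000 RFU were left out.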
TCGTGACAAG showed a switch fluorescence ratio of 1. TCGTGATGGA showed a switch fluorescence ratio of 1.05. With TCGTGGCCCT the switch fluorescence ratio was 0.99. TCGTGGTGAC was tested, and the switch fluorescence ratio was 0.955. In the case of TCGTGGTTAA, the switch fluorescence ratio is reported as 0.946. Work on TCGTGTCCAG yielded a switch fluorescence ratio of 1.01. TCGTTAATT was tested, and the switch fluorescence ratio was 0.952. TCGTTATACG gave a switch fluorescence ratio of 1.03. Work on TCGTTCCATA yielded a switch fluorescence ratio of 1.03. With TCGTTGCATC the switch fluorescence ratio was 1.03. For TCGTTTCAG, the switch fluorescence ratio was 1.01. For TCTAAACTGT, the switch fluorescence ratio was 1. Work on TCTAAAGAGA yielded a switch fluorescence ratio of 0.997. Work on TCTAAATAAT yielded a switch fluorescence ratio of 1.03. TCTAAATCCA gave a switch fluorescence ratio of 0.977. Work on TCTAACAGAT yielded a switch fluorescence ratio of 1. TCTAACGCCA showed a switch fluorescence ratio of 1.38. For TCTAAGAGAA, the switch fluorescence ratio was 0.996. Work on TCTAAGCACG yielded a switch fluorescence ratio of 1.16. TCTAAGTTAG showed a switch fluorescence ratio of 0.976. With TCTAATATCC the switch fluorescence ratio was 0.956. With TCTAATGATG the switch fluorescence ratio was 0.95. For TCTAATTCGA, the switch fluorescence ratio was 1.01. For TCTAATTGTA, the switch fluorescence ratio was 0.94. For TCTACAGGGG, the switch fluorescence ratio was 1.41. TCTACGTT was tested, and the switch fluorescence ratio was 1.04. TCTAGATGT was tested, and the switch fluorescence ratio was 1.01. TCTAGCCCAT showed a switch fluorescence ratio of 0.991. With TCTAGCCCCC the switch fluorescence ratio was 1.06. Work on TCTAGTAAGA yielded a switch fluorescence ratio of 0.955. TCTAGTATTT gave a switch fluorescence ratio of 0.972. TCTAGTGT showed a switch fluorescence ratio of 0.98. TCTATAGGCA gave a switch fluorescence ratio of 0.984. In the case of TCTATATATC, the switch fluorescence ratio is reported as 1.05. In the case of TCTATCCGCT, the switch fluorescence ratio is reported as 1.58. TCTATCCGGT gave a switch fluorescence ratio of 1.01. TCTATCGGCT was tested, and the switch fluorescence ratio was 0.961. TCTATCGGTT was tested, and the switch fluorescence ratio was 1. Sequence TCTATGCCT has a switch fluorescence ratio of 1.04. TCTATGTT gave a switch fluorescence ratio of 0.992. With TCTATTCGTG the switch fluorescence ratio was 0.973. Work on TCTCAGCACT yielded a switch fluorescence ratio of 2.11. In the case of TCTCCCATCG, the switch fluorescence ratio is reported as 1.14. TCTCGAGAC showed a switch fluorescence ratio of 1.06. In the case of TCTCGATAGT, the switch fluorescence ratio is reported as 0.98. TCTCGGGCT was tested, and the switch fluorescence ratio was 1.02. Sequence TCTCGGTTCC has a switch fluorescence ratio of 1.03. For TCTCTATCCC, the switch fluorescence ratio was 1.05. TCTCTATGTC showed a switch fluorescence ratio of 1.02. Sequence TCTCTCCCAT has a switch fluorescence ratio of 1.36. TCTCTGAGCT showed a switch fluorescence ratio of 0.996. Work on TCTCTTTATG yielded a switch fluorescence ratio of 0.993. TCTGAAGTTG was tested, and the switch fluorescence ratio was 1.05. TCTGAGAGGT was tested, and the switch fluorescence ratio was 1. Sequence TCTGAGCTGC has a switch fluorescence ratio of 0.915. For TCTGATATCT, the switch fluorescence ratio was 0.987. For TCTGATCAGT, the switch fluorescence ratio was 0.987. In the case of TCTGATGAGG, the switch fluorescence ratio is reported as 0.973. TCTGATGC gave a switch fluorescence ratio of 1.26. TCTGCCAAGA gave a switch fluorescence ratio of 1.03. TCTGCGACC was tested, and the switch fluorescence ratio was 1.05. Sequence TCTGCGCTGA has a switch fluorescence ratio of 1.06. For TCTGGACCCA, the switch fluorescence ratio was 1.03. TCTGGCGGGA was tested, and the switch fluorescence ratio was 1.02. For TCTGGCTAGT, the switch fluorescence ratio was 0.976. Sequence TCTGGCTCGC has a switch fluorescence ratio of 1.05. TCTGGCTCTA was tested, and the switch fluorescence ratio was 1. For TCTGGCTGTT, the switch fluorescence ratio was 0.973. TCTGGCTTC showed a switch fluorescence ratio of 1.22. In the case of TCTGGGACGA, the switch fluorescence ratio is reported as 0.979. Work on TCTGGGGGCG yielded a switch fluorescence ratio of 0.931. TCTGGGGTAT showed a switch fluorescence ratio of 1.05. In the case of TCTGGGGTGA, the switch fluorescence ratio is reported as 0.972. In the case of TCTGGGTAGG, the switch fluorescence ratio is reported as 0.997. TCTGGTACCG was tested, and the switch fluorescence ratio was 1.01. TCTGGTAGTA gave a switch fluorescence ratio of 1.01. TCTGGTATGT gave a switch fluorescence ratio of 1.05. Sequence TCTGGTCCGA has a switch fluorescence ratio of 0.988. TCTGGTCTTA showed a switch fluorescence ratio of 0.954. Work on TCTGGTTTCT yielded a switch fluorescence ratio of 1.01. TCTGTAAAGA was tested, and the switch fluorescence ratio was 1.07. For TCTGTAAAGG, the switch fluorescence ratio was 0.969. TCTGTAACTC gave a switch fluorescence ratio of 1.05. TCTGTAGGCC showed a switch fluorescence ratio of 0.969. Work on TCTGTGATGT yielded a switch fluorescence ratio of 1.03.
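Also: ATP exposure 15 min at 22 °C before imaging.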
